Laboratory results: the supplement of paper PMC10126150
Sequences with one replicate were seen in a single cluster, so their values are uncertain.

System: ATP
Experiment: switch fluorescence ratio, 500 uM ATP over buffer (Cy3 cluster intensity, sum of 5 cycles each) (fold (ratio)); higher = stronger signal-on switching upon ATP binding; sequences stand for … in TCGTCGGCAGCGTCAGATGTGTATAAGAGACAGTTTTTTTTTTTTTTTTTTTTTTTTT…TC
Conditions: aptamer strand: ATP DNA aptamer (quencher-CACCTGGGGGAGTATTGCGGAGGAAGG + anchor), 100 nM annealed; ATP concentration: 500 uM; one replicate
Method in brief: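 Per cluster, summed Cy3 intensity from the target cycles was divided by that from the buffer cycles to give the fluorescence ratio, then averaged per switch-domain sequence. Clusters outside 100-1000 RFU were excluded. The Cy3-labelled switching-strand clusters, on a modified Illumina MiSeq flow-cell, were annealed to 100 nM quencher-labelled ATP aptamer and imaged in selection buffer, then after 15 min with 500 uM ATP at 22 °C, for five cycles with NaOH stripping and re-annealing between them.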
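Also: ATP exposure 15 min at 22 °C before imaging.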

CACTTCCCGG showed a switch fluorescence ratio of 1.28.

In the case of TCTGGTTAGA, the switch fluorescence ratio is reported as 0.992.

In the case of CGACCGAG, the switch fluorescence ratio is reported as 0.978.

GCGGCTATCA was tested, and the switch fluorescence ratio was 1.02.

In the case of CCATCTGGGC, the switch fluorescence ratio is reported as 1.01.

With GGAGTGTAGT the switch fluorescence ratio was 0.979.

In the case of AGGTAGAGCG, the switch fluorescence ratio is reported as 0.996.

Work on GAGAAAACAG yielded a switch fluorescence ratio of 0.941.

Sequence TGGCAGAACT has a switch fluorescence ratio of 1.03.

ACAGTTTTAT showed a switch fluorescence ratio of 0.983.

Sequence CATGTGTTCG has a switch fluorescence ratio of 1.03.

CGATGCTATG gave a switch fluorescence ratio of 1.07.

Sequence CCTCGATGCT has a switch fluorescence ratio of 1.41.

Work on GCAATAACGG yielded a switch fluorescence ratio of 1.99.

TTCGGCCGAC showed a switch fluorescence ratio of 0.99.

ATTTACTGAC was tested, and the switch fluorescence ratio was 1.24.

In the case of CCTAGGTTCT, the switch fluorescence ratio is reported as 0.984.

CTTGACATTA gave a switch fluorescence ratio of 1.03.

With ACGTAGGTCT the switch fluorescence ratio was 1.01.

In the case of TGTCGGACGT, the switch fluorescence ratio is reported as 1.01.

With GTTTTGGATC the switch fluorescence ratio was 1.01.

CAGGGGGCTC showed a switch fluorescence ratio of 0.989.

ACTGCAGCTG gave a switch fluorescence ratio of 1.04.

Sequence TAGGGCTAAT has a switch fluorescence ratio of 0.972.

With AGGGTTGTCT the switch fluorescence ratio was 1.06.

ATGGCCTGGC showed a switch fluorescence ratio of 1.

For CTATACTATA, the switch fluorescence ratio was 1.06.

GGGACCAGAA gave a switch fluorescence ratio of 0.973.

CTGGTTGCAG was tested, and the switch fluorescence ratio was 0.977.

GCTTCGTCGG gave a switch fluorescence ratio of 1.05.

Work on TTAAAGGAAT yielded a switch fluorescence ratio of 1.

With GGGATCAGGT the switch fluorescence ratio was 0.996.

In the case of CATGTCCCGG, the switch fluorescence ratio is reported as 0.989.

CGGTAACAAT gave a switch fluorescence ratio of 1.14.

For GGGAGGCGCG, the switch fluorescence ratio was 1.04.

GCATCGGGAT showed a switch fluorescence ratio of 1.03.

With GACATGGCCG the switch fluorescence ratio was 1.06.

For GCTCAAGAT, the switch fluorescence ratio was 1.21.

TGTAGGAGGC showed a switch fluorescence ratio of 0.964.

With ATACGGCAGA the switch fluorescence ratio was 1.03.

GCACTGTGAG gave a switch fluorescence ratio of 1.05.

In the case of TGGAACTAT, the switch fluorescence ratio is reported as 0.983.

Work on CAGATATCAC yielded a switch fluorescence ratio of 1.02.

GTCGGATGGG gave a switch fluorescence ratio of 0.94.

For AAAGTTGAA, the switch fluorescence ratio was 0.99.

With TGAGGCGCGT the switch fluorescence ratio was 1.

TGAAGGGCA gave a switch fluorescence ratio of 1.02.

TCAGGACTTA showed a switch fluorescence ratio of 0.987.

TCGCACTTTA was tested, and the switch fluorescence ratio was 1.07.

For GAGAATTAGT, the switch fluorescence ratio was 1.04.

With CTTAGTCAG the switch fluorescence ratio was 0.95.

Sequence AGGCCCGGAT has a switch fluorescence ratio of 0.97.

For GAATGGTGGC, the switch fluorescence ratio was 0.98.

TTGTGCTGTG showed a switch fluorescence ratio of 1.01.

GCGGATAACT showed a switch fluorescence ratio of 1.04.

For GCTAATTTG, the switch fluorescence ratio was 0.974.

Sequence TTTCGCTGG has a switch fluorescence ratio of 1.04.

TTACGTCCGG gave a switch fluorescence ratio of 1.04.

In the case of TGGATACAGA, the switch fluorescence ratio is reported as 1.04.

Sequence TGGGCGAGCG has a switch fluorescence ratio of 1.04.

ACCCATGGGC was tested, and the switch fluorescence ratio was 1.

Sequence CTTAGTTGT has a switch fluorescence ratio of 1.

For GAAGGATGGG, the switch fluorescence ratio was 0.954.

Sequence CAGATCAGAT has a switch fluorescence ratio of 0.964.

For TTGATGCGAC, the switch fluorescence ratio was 1.11.

In the case of AGTCTCGATC, the switch fluorescence ratio is reported as 0.994.

For GTTGCAAATG, the switch fluorescence ratio was 0.973.

For GTACTGCCAG, the switch fluorescence ratio was 1.01.

ACTAATTAGG was tested, and the switch fluorescence ratio was 1.03.

For GGCGAGGAGG, the switch fluorescence ratio was 1.

Sequence TTAACGCTTA has a switch fluorescence ratio of 1.5.

ATAGTTCATA gave a switch fluorescence ratio of 1.01.

In the case of CAACTATAGC, the switch fluorescence ratio is reported as 1.04.

Sequence TGGGAATCTG has a switch fluorescence ratio of 0.971.

In the case of TCTGCGTGT, the switch fluorescence ratio is reported as 1.02.

GCTACCTAA gave a switch fluorescence ratio of 1.01.

With ATCGGTAG the switch fluorescence ratio was 1.02.

GGTATTGCTA was tested, and the switch fluorescence ratio was 0.974.

Sequence TCATGCCTCG has a switch fluorescence ratio of 1.09.

CCCGTAGTCT was tested, and the switch fluorescence ratio was 1.07.

CGGAAGGAGT was tested, and the switch fluorescence ratio was 0.963.

In the case of GCCATAGACT, the switch fluorescence ratio is reported as 0.979.

With GTGGCATATC the switch fluorescence ratio was 1.24.

Sequence ATTCCATTCG has a switch fluorescence ratio of 1.14.

CAGCTTTTCT gave a switch fluorescence ratio of 1.

TATGGCTAGC was tested, and the switch fluorescence ratio was 1.01.

CGGAGATGGA showed a switch fluorescence ratio of 1.01.

TAGTGGTGCG was tested, and the switch fluorescence ratio was 1.01.

TCATGTGGCA was tested, and the switch fluorescence ratio was 1.04.

ATACTTGCCA showed a switch fluorescence ratio of 1.09.

Sequence TTAATGCGAA has a switch fluorescence ratio of 0.972.

Sequence TTGATTCCTC has a switch fluorescence ratio of 1.14.

ATGCGAGCTT showed a switch fluorescence ratio of 0.983.

For CTAGTATTAC, the switch fluorescence ratio was 1.22.

Work on TTCGAGCAAC yielded a switch fluorescence ratio of 3.19.

CCGTGGGTGG was tested, and the switch fluorescence ratio was 0.967.

TCGGGGGCTA was tested, and the switch fluorescence ratio was 0.981.

TCGATAAGTC showed a switch fluorescence ratio of 0.991.

CTACGATTGT was tested, and the switch fluorescence ratio was 1.06.

In the case of ACCTCTAGCG, the switch fluorescence ratio is reported as 1.1.

With GTATAAATGA the switch fluorescence ratio was 0.972.

GAGTGCTTGA gave a switch fluorescence ratio of 0.984.

TTGCCCCTAC showed a switch fluorescence ratio of 1.1.

Work on AATGGAGGGC yielded a switch fluorescence ratio of 0.955.

AGTGCATCCG showed a switch fluorescence ratio of 1.

Sequence GGTGTCTGTC has a switch fluorescence ratio of 0.949.

In the case of TGCAGTGGCC, the switch fluorescence ratio is reported as 1.03.

With CTGGGCTATT the switch fluorescence ratio was 1.05.

CGCGTCCATA was tested, and the switch fluorescence ratio was 0.991.

Sequence CTATGAGGCT has a switch fluorescence ratio of 0.973.

Sequence TTTAAACCAC has a switch fluorescence ratio of 1.04.

In the case of TCGGCAGTCC, the switch fluorescence ratio is reported as 1.17.

For TAATTTACTG, the switch fluorescence ratio was 1.13.

ACACAACCCC gave a switch fluorescence ratio of 1.22.

GACCCGCGGC gave a switch fluorescence ratio of 1.02.

In the case of CATTTTGTCG, the switch fluorescence ratio is reported as 0.927.

GTGAAGTCTC was tested, and the switch fluorescence ratio was 0.943.

For ACTAGCGTCT, the switch fluorescence ratio was 1.03.

TCCTCGGCCT gave a switch fluorescence ratio of 2.24.

For TGAAGGTCGA, the switch fluorescence ratio was 1.02.

Work on CGTGGGGAGA yielded a switch fluorescence ratio of 1.08.

For CGGGAGTCGG, the switch fluorescence ratio was 1.

In the case of GACCTGAGTG, the switch fluorescence ratio is reported as 1.

Work on TATCAATTG yielded a switch fluorescence ratio of 1.03.

For CACCATTAGA, the switch fluorescence ratio was 0.981.

ATCACAGGTA showed a switch fluorescence ratio of 1.06.

GGATTTTCCT was tested, and the switch fluorescence ratio was 1.02.

ACCCTGCGTT gave a switch fluorescence ratio of 1.05.

For AGTTACCTAA, the switch fluorescence ratio was 1.05.

Work on AGTATATATA yielded a switch fluorescence ratio of 1.01.

Work on GGTGGCGCCT yielded a switch fluorescence ratio of 1.

In the case of TGCGGCTTGG, the switch fluorescence ratio is reported as 1.

For ATGATGTCGC, the switch fluorescence ratio was 1.05.

Work on GCTAATCTCC yielded a switch fluorescence ratio of 2.11.

For AATATATTGT, the switch fluorescence ratio was 0.984.

With CTACTTTGAT the switch fluorescence ratio was 1.04.

CACAGCGCAT gave a switch fluorescence ratio of 1.05.

Sequence TGGAAGACCT has a switch fluorescence ratio of 1.02.

Work on CTAGAGCGGG yielded a switch fluorescence ratio of 1.05.

Work on GCTGAAGTGA yielded a switch fluorescence ratio of 1.04.

With AACGGGACTG the switch fluorescence ratio was 0.978.

Work on TATATCGCCG yielded a switch fluorescence ratio of 0.928.

With GGTTGACGAT the switch fluorescence ratio was 1.01.

For ATGAGTAGCC, the switch fluorescence ratio was 1.02.

ATAATTTTG gave a switch fluorescence ratio of 0.974.

Work on AGCATGTCAG yielded a switch fluorescence ratio of 0.998.

Work on CACCGCACCT yielded a switch fluorescence ratio of 1.98.

Work on TACTAACTTT yielded a switch fluorescence ratio of 1.13.

GCCGGTCTCT showed a switch fluorescence ratio of 0.977.

TCTCCGTAGA was tested, and the switch fluorescence ratio was 1.13.

CACTTATCTA was tested, and the switch fluorescence ratio was 1.01.

GGTGGAGCAC showed a switch fluorescence ratio of 0.934.

CGCTCCCGGC showed a switch fluorescence ratio of 1.03.

AACAATCATG gave a switch fluorescence ratio of 1.03.

In the case of CTAAAGTCG, the switch fluorescence ratio is reported as 0.932.

ATATGCATTC showed a switch fluorescence ratio of 1.05.

GGGGATTAGC was tested, and the switch fluorescence ratio was 0.979.
